Entries after “also recorded” stand apart in the source; their conditions may differ.
Legend:
[1] = test system: Ramos cells; assay: Complement dependent cytotoxicity (CDC) in presence of human serum, calcein-AM release; assay type: cell-based; settings: IgG
Experimental: To test whether the anti-CXCR41 IgGs described herein are able to mediate complement dependent cytotoxicity, CDC experiments have been performed using Ramos cells which are derived from Burkitt's B-cell lymphoma and have constitutive expression of CXCR4.
Ramos cells were maintained as described above.
The Ramos cells, were sedimented by centrifugation and washed twice in RPMI-1640 culture medium. 2.5×10^6 cells/ml was mixed with calcein-AM (Invitrogen) to a final concentration of 10 μM and then incubated at 37° C. for 30 min. The cells were washed three times in RPMI-1640 with 10% FCS and the cell density was adjusted to 4×10^6 cells/mL. A 25 μl aliquot of labelled target cells and 25 μl of human serum were mixed in the wells in a 96-well microtiter plate. Dilutions of the antibodies (all in IgG format) were added to the same wells in 50 μl volume thus resulting in a final antibody concentration ranging from 5×10^−5 to 5×10^4 ng/ml. Twenty μl 0.9% Triton-X100 was added to control wells to achieve complete lysis of the target cells (maximal lysis defining 100%). The microtiter plate was incubated for 1 hr at 37° C. One hundred μl RPMI-1640 with 10% FCS was added to all wells followed by centrifugation and transfer of 100 μl supernatant of each sample to a black microtiter plate. The fluorescence (excitation at 488 nm, emission at 518 nm) was recorded using a TECAN M200 plate reader. Each experiment was carried out in quadruplicates. The fluorescence intensity of the samples without antibodies was subtracted as a background and the percentage of specific lysis in samples with antibodies was calculated. The dose-response curves were computed by nonlinear regression analysis and a three-parameter fit model using Prism software (GraphPad).

[2] = biological target: T1, mouse CXCR4 (Mus musculus, UniProt P70658); assay: Species cross reactivity: binding to HEK-293 cells transiently expressing mouse CXCR4; settings: scFv level; transiently transfected HEK-293 cells
T1 construct: expressed in transfected cells; host or cells: HEK-293 (HEK293T/17), transient transfection with Fugene
Experimental: (§1) The antibody candidates were tested on scFv level for their ability to cross-react with CXCR4 from monkey and mouse.
(§2) HEK293T/17 cells were maintained as described above.
(§3) FACS-binding analyses (EasyCyte) were performed using HEK-293 cells transiently transfected with plasmids encoding either, mouse (Gene bank accession number BC031665) or monkey (Macaca mulatta) CXCR4 (NCBI Accession number NP_001036110). Two experiments were performed, one using α-cMyc and PE-labelled goat anti-mouse IgG antibody, the second using a directly conjugated RPE-c-Myc antibody for detection. In addition, cross-reactivity on IgG level was analysed. In the latter case, antibody binding was detected with PE-conjugated goat anti-human IgG antibody.

[3] = test system: CXCR4+ Ramos cell line; assay: Induction of apoptosis (Annexin V / PI staining); assay type: cell-based, human; settings: IgG1 0.08 to 10 μg/ml, 48 hrs, versus background level
Experimental: The ability of anti-CXCR4 antibodies to induce apoptosis was assessed on the CXCR4^+ Ramos cell line.
Ramos cells were cultivated as described above.
The Ramos cells were harvested by centrifugation, washed twice in RPMI-1640 culture medium with 10% FCS and resuspended in RPMI-1640 medium with 10% FCS to a density of 3×10^5 cells/ml. The cell suspension (250 μl) was mixed with the same volume of either antibody to be tested in dilutions (final concentration of 0.08 to 10 μg/ml) or staurosporin (25 nM) in wells of a 24-well plate and incubated at 37° C. for 48 hrs. The cells were collected by centrifugation and washed in Annexin V Binding Buffer (10 mM Hepes, 140 mM NaCl, 2.5 mM CaCl2, 0.2% BSA, pH 7.4). The cells were harvested again and resuspended in 300 μl Annexin V Binding Buffer. Both FITC-conjugated Annexin V and propidium iodide (PI) were mixed with 240 μl cell suspension resulting in a final concentration of PI of 0.2 μg/ml. The samples were analyzed immediately after adding the ligand using the 515-545 nm and 610/20 nm band pass filters on a FACSCanto II flow cytometer (BD Biosciences). The apoptotic cells were defined as Annexin V positive/PI negative and the dead cells were defined as PI positive.

[4] = biological target: T2, monkey (Macaca mulatta) CXCR4 (Macaca mulatta, UniProt P79394); assay: Species cross reactivity: binding to HEK-293 cells transiently expressing monkey CXCR4; settings: scFv level, transiently transfected HEK-293 cells
T2 construct: expressed in transfected cells; host or cells: HEK-293 (HEK293T/17), transient transfection with Fugene
Experimental: as §1, §2, §3

[5] = biological target: T3, CXCR4 (Homo sapiens, UniProt P61073); assay: Interference with ligand binding: scFv binding to Jurkat and Ramos cells without and with SDF-1α or AMD3100; settings: transfected and naturally CXCR4 expressing cells
T3 construct: CRL-1596 (Ramos); host or cells: Ramos, Jurkat 6E-1, CCRF-CEM
Excerpt: One molecule is SDF-1, the natural ligand to CXCR4, the other one is AMD3100, a peptide derived highly specific competetive inhibitor to SDF-1α binding to CXCR4.
Jurkat and Ramos cells were maintained as described above.
The scFv clones were expressed in large scale and purified as monomer fraction by SEC fractionation. The natural CXCR4^+ expressing cell lines Jurkat and Ramos were harvested from the culture flasks, washed 2 times with PBS supplemented with 0.2% BSA and 0.09% NaN3 buffer and aliquoted at 1×10^5 cells per well into V-shaped 96-well plates (Greiner Bio-One, Frickenhausen, Germany). Cells were pelleted by centrifugation (400 g, 5 min) and then incubated for 60 min at 4° C. with 1 μg SDF-1α (PeproTech EC, London, UK) and 50 μl scFv diluted to 10 μg/ml in PBS supplemented with 0.2% BSA and 0.09% NaN3 buffer, both added at the same time to the cells. A sample without ligand or 157 μg AMD3100 served as control for the specificity of CXCR4 since AMD3100 only binds to this receptor. AMD3100 was added simultaneously with the scFv to the cells. […]

T2 sequence (P79394 whole entry): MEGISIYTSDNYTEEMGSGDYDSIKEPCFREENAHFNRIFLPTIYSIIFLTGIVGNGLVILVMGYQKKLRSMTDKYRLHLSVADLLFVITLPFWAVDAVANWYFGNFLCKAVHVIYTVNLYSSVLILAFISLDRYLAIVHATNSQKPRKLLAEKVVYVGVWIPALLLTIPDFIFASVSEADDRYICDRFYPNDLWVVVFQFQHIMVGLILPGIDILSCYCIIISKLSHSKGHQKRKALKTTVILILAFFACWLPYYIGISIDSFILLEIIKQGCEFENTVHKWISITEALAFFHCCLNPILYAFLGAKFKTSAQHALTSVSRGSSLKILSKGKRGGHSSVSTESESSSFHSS
T1 sequence (P70658 whole entry): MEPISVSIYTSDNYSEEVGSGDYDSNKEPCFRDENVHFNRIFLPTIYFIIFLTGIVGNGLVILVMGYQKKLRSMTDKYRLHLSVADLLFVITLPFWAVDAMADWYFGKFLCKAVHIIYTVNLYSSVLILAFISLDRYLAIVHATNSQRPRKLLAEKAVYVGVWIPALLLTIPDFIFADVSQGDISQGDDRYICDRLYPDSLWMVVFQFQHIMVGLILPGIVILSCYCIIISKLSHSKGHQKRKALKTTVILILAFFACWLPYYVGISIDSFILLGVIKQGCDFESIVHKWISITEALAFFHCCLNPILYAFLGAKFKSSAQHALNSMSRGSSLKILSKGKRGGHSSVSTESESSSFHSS
T3 sequence (P61073 whole entry): as the sequence (P79394 whole entry) above, with I24M, H35N, R38K, K146R, S176N, D214V counted along it

B1: C-1I24: human anti-CXCR4 antibody; scFv SEQ ID NO: 57; IgG1/lambda heavy chain SEQ ID NO: 116, light chain SEQ ID NO: 117 (antibody)
heavy: QVQLVQSGGGVVQPGRSLRLSCAASGFTFSSYGMHWVRQAPGKGLEWVAVISYDGSNKYYADSVKGRFTISRDNSKNTLYLQMNSLRAEDTAVYYCAKDLPITRGTGADYWGQGTLVTVSS[human IgG1 constant region left out]
light: QSVLIQPASVSGSPGQSITISCTGTSSDVGGYNYVSWYQQHPGKAPRLMIYDVTSRPSGVSNRFSGSKSGNTASLTISGLQAEDEADYYCSSYAGSYSVVFGGGTKVTVLGQPKAAPSVTLFPPSSEELQANKATLVCLISDFYPGAVTVAWKADSSPVKAGVETTTPSKQSNNKYAASSYLSLTPEQWKSHRSYSCQVTHEGSTVEKTVAPTECS
modifications: antibody sequence
[1]
  CDC activity against Ramos cells (words): able to induce CDC; also recorded: superior CDC activity
[1]; Ramos cells, 1 hr
  maximum killing CDC: 100%
[1]; listed as C1I24
  CDC activity against Ramos cells (words): good ability to induce CDC
[2]
  cross-reactivity with mouse CXCR4: intermediate
[3]
  induction of apoptosis (Annexin V positive/PI negative cells): no apoptosis was induced above the background level
[4]
  cross-reactivity with monkey CXCR4: good cross-reactivity
[4]; listed as C1I24
  cross-reactivity with monkey CXCR4: bind to both human CXCR4 and monkey CXCR4
[5]
  binding to all cell types tested: excellent binding
